Laboratory results as given in publication PMC12136788.
The list shows a part of the results.

T1: UNK ZnF1-3 (human, UniProt Q9C0B0 31-174)
T1 sequence: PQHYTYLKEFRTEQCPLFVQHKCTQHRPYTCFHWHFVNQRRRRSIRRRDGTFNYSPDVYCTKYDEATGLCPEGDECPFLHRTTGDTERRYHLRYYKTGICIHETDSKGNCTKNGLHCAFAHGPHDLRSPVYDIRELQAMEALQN

B1: chr4:144460044:144460045:+_ENSG00000153147_ENST00000283131|hu_hu|motif|central (ssRNA)
RNA: GGGAGUUCUACAGUCCGACGAUCUCGGUCCAUAGCCUGAAGAUCUACUUGGGGAUUCCAAUCAGAAUCAUACAAAAUUACGGCAUCAGCAGUCGCAAGAUUGAUGCCAAGACCACCAGCACGCGUGCUUAACAUGAAAACAAACAACAGAGGAUUGAGCAUCA
B2: 8888064_8890295_3602_CDS_ENSG00000134313_ENST00000427284|human|control|control (ssRNA)
RNA: GGGAGUUCUACAGUCCGACGAUCUGAGAUGAGAUGUUGGGAGCCGCCAGGGUAAUACCUUGGCGUGUAAAGGUAUGGGGCAAAGAAUGGCCUGUUGUAGAAGGGAUGCUGAGGGCCCGUCAUGCCGCUGUAAUAGCUGCUGUGCAACAGAGGAUUGAGCAUCA
B3: chr19:12019223:12019224:+_ENSMUSG00000046139_ENSMUST00000061618|mus_hu|motif|central (ssRNA)
RNA: GGGAGUUCUACAGUCCGACGAUCAGGGAAGGUAGGAAAGGCAUGUAGUGGAAAUGGUCAGUAGACAACGGUAGAGGGAAGCGGGGUAACAUCACUGGGGAACAGCUGGUGGAGCCUGGGGUUACAGCAUGGGAAGAAAUGGAGCAACAGAGGAUUGAGCAUCA
B4: chr9:59598888:59598889:+_ENSMUSG00000039585_ENSMUST00000128341|mus_hu|FALSE|FALSE (ssRNA)
RNA: GGGAGUUCUACAGUCCGACGAUCGAGCAGGCACAUCCCCCGCCGCACCCCGCCCAGAGAGCACGCGUUGGACCGCCGCCUCAACCGCUGCCAGCGGCCGCCUCUGCCGGUGCAACUACUGCCUCCGCCGCCGCCUCUCGCAGUCAACAGAGGAUUGAGCAUCA
B5: chr15:81756291:81756292:-_ENSMUSG00000022476_ENSMUST00000023113|mus_mus|FALSE|FALSE (ssRNA)
RNA: GGGAGUUCUACAGUCCGACGAUCUCAGCUCCUCAGCAAUGGAAUCGUUGAGUUUCCGCUCAAACUGCCACGGGGGUAUGCGCACGGUGUCCACCAUCUCCACCAGCACGAACAUCCUGCGCUAGGGCUCUGGAGACCGGAGAGCAACAGAGGAUUGAGCAUCA
B6: chr5:176562935:176562936:+_ENSG00000165671_ENST00000439151|hu_hu|FALSE|FALSE (ssRNA)
RNA: GGGAGUUCUACAGUCCGACGAUCGGUACUGGAAUCUGGAUCAUCCUGAAAAGAUAAAUUUAUUGAGUUUAAUUGCUCUUCUAUUGUAAUGUUUGUGUCUCCUAGUGAAAAGGGGGCUGGGAGAAGGGCUGCUUUUUCAUUGCUCAACAGAGGAUUGAGCAUCA
B7: 113631540_113639574_425_3pUTR_ENSG00000086827_ENST00000200135|human|control|control (ssRNA)
RNA: GGGAGUUCUACAGUCCGACGAUCCCUGCAACUGUUUAAGCAAACUUAGGACAACUGAGUCUCUUUCCAACUGCUGCUUUAAGUCUGUAAAUUCACCGGUUGAUACGUGAAGAUCCCGGCGGACCUCACUCUCUAUCCUGGAUUCAACAGAGGAUUGAGCAUCA
B8: chr3:179287964:179287965:+_ENSG00000136518_ENST00000429709|hu_hu|hu_hu_hu_mus_True|8_8 (ssRNA)
RNA: GGGAGUUCUACAGUCCGACGAUCCUUGAGUGGUGAGAUGGCCUCCAUGUUCUCCCUGGGCACGCGGAGGGCAUUGGUGUCUAUGUAGUAGGUGGGCCCGCCCUGCUUGCCUUUGUCACCAUCAAUCUCCAUUAAUGUACUUCCCAACAGAGGAUUGAGCAUCA
B9: chr3:52014989:52014990:+_ENSG00000248487_ENST00000273596|hu_hu|FALSE|FALSE (ssRNA)
RNA: GGGAGUUCUACAGUCCGACGAUCGAGUGGGUUAGUUCAAGGUAGAUGGUCAAGGAAGGCAAGCAGGACAAGGUGGAAGUCUUGCGGCUUGUGGAGGUAACAGGCAUGGCCUGCAUUGCGUAGCUUCACCACAGAGUGGUUGGGCAACAGAGGAUUGAGCAUCA
B10: chr1:78482781:78482782:+_ENSG00000162616_ENST00000370763|hu_mus|FALSE|FALSE (ssRNA)
RNA: GGGAGUUCUACAGUCCGACGAUCUAACACCACAGUGAUAGAUGACUGUUCUUUAGGGAAAUUAUGUAAGGUGCAUAGCAUGAGGAACUUAACAGAACACUGUAAAUGGACAAUUAAUGCCAAGUAACAGUAUUUUCUCUAAAACAACAGAGGAUUGAGCAUCA
B11: chr4:83276511:83276512:-_ENSG00000138668_ENST00000353341|hu_mus|motif|central (ssRNA)
RNA: GGGAGUUCUACAGUCCGACGAUCCUUCACCACCUGUUGGGGAUAAGUUGCAAAUGGAAUAAUUUAGUAUGGUUUGUAGCGGUUUUGAUGUCCACCUCGCCUGGAUACUUUCCCAUAACCACUCUGCUGAUUGCUAUAAUCACCCAACAGAGGAUUGAGCAUCA
B12: chr22:38882006:38882007:-_ENSG00000100201_ENST00000396821|hu_hu|motif|central (ssRNA)
RNA: GGGAGUUCUACAGUCCGACGAUCAGGAGGAGGAGGGGGAGGAGGAGGAGGGUAUUGGUAGGCAGUCUGCCCCAUGUAACCGGUCAUAUUGGUAGCUCCCGGAGGCUGUGCAAACUGUUGUGACAUCAGUGGCUGUGGCUGCUGCAACAGAGGAUUGAGCAUCA
B13: chr7:149068622:149068623:-_ENSMUSG00000025139_ENSMUST00000001950|mus_hu|mus_mus_mus_hu_False|1_18 (ssRNA)
RNA: GGGAGUUCUACAGUCCGACGAUCGUGAGGCCUCUGAGUGUGGCUUGUGGUCUGUCCUGGGUUAGAGUUGUUAAUAUCACGGAACAUACCAUCUAGAACGUUCCAGUCCCGCCUGACCAUCCACCCUCCAAUGGAGAAUCUGCUCAACAGAGGAUUGAGCAUCA
B14: chr7:140710375:140710376:-_ENSG00000090263_ENST00000324787|hu_hu|FALSE|FALSE (ssRNA)
RNA: GGGAGUUCUACAGUCCGACGAUCGUGGUGAUUUGGAUACCAAUCAUAAGUCUCCUUCUUCUUGGCCAAGGGCAGUUCACUAAACAGUUUCACCACUUUCAUAGACUUGGAAUUAGUAGGCCUGGUGACUUCACCAAAUAGCCGCAACAGAGGAUUGAGCAUCA
B15: chr3:185643329:185643330:-_ENSG00000136527_ENST00000456380|hu_hu|FALSE|FALSE (ssRNA)
RNA: GGGAGUUCUACAGUCCGACGAUCGACAUGGGAGAAUGGCUGUGGCUGUGCCGUCUACGAUAAUCUCGACUGUAAGACCUGCUACGUGAUCGUCUAUGGGAGCGGGAGCGAGACCGUGACCGGGUAUAAUGCCUUCGGGAGCUUCAACAGAGGAUUGAGCAUCA
B16: chr4:99962207:99962208:+_ENSG00000164024_ENST00000296411|hu_mus|FALSE|FALSE (ssRNA)
RNA: GGGAGUUCUACAGUCCGACGAUCCCCAGCAGCAAUGUCCAAAACUUCUCUGGCAAGCCUACACACGAGUCGCAUCCCUUCUAUAUCUUCAGAUGAGAGUAACUUAAUCUGAGAGGUACCUUUAAGAGCCUGCUCCGAUUCAGACAACAGAGGAUUGAGCAUCA
B17: chr11:18503389:18503390:-_ENSG00000074319_ENST00000251968|hu_hu|hu_hu_hu_mus_True|38_88 (ssRNA)
RNA: GGGAGUUCUACAGUCCGACGAUCAUUUUCCAUUUUCUCCAGAGCAGAACUGAGUUCUUCAUCCUUCUUUUUCAAAAGUUCUAUGUUUUUAUCAACUUCGGCUACUUCUUGAUCUAAGCGGGUGACCAUCUCUUCCAGUUUCUGCAACAGAGGAUUGAGCAUCA
B18: chr14:92628060:92628061:+_ENSG00000165934_ENST00000298875|hu_mus|FALSE|FALSE (ssRNA)
RNA: GGGAGUUCUACAGUCCGACGAUCUUGACAUCAUGUCCUUUACACAAUGGCAUACUGUUCAUAUAAAAGGUCUCGUAUCCUAUAAAAGUCUUGACAAAGGCAGCCUUCUAAUCCGAUGCGUCCAGUUUCUGUUCUGCGAACUGCCAACAGAGGAUUGAGCAUCA
B19: chr11:33163239:33163240:-_ENSG00000176102_ENST00000323959|hu_hu|motif|central (ssRNA)
RNA: GGGAGUUCUACAGUCCGACGAUCUCUGCCAGAACUGGGGAACUGGGCAACAAGGCGUUCAUAAGUCUUCCGUGCUUUGUCGGUAGGUUGAUUCUGUGCCUCUCGAAUGAGAAUGCUCCAAGCAUCAAGGUCAUAUGGAUUCUCCAACAGAGGAUUGAGCAUCA
B20: 107883963_107888198_179_CDS_ENSMUSG00000027889_ENSMUST00000078912|mouse|control|control (ssRNA)
RNA: GGGAGUUCUACAGUCCGACGAUCAAGCGGGAAGUGCUUGAGGCAAGGGGCGUUGCCUGGCAGGGAUCGGGCAGACUGUAGCGGAGAGGCCCCCAGACCGCUUCGAGCUUCUGGAGCGGCAGCGGAAGCUUGCAGGCCGGCCCGCAACAGAGGAUUGAGCAUCA
B21: chr11:22899103:22899104:+_ENSMUSG00000007739_ENSMUST00000173867|mus_mus|FALSE|FALSE (ssRNA)
RNA: GGGAGUUCUACAGUCCGACGAUCUAAAAUAUAGGCUCUCUCCUCUCGAAGCACUCGAUCCAUCUGGGCAUAGUCAGAUACUACUAUUUGAUUAUCCAUAUCUGUUUUAGGAGCAGAUAAGCAAAACUGAAUAAGCCCAAUCUUCAACAGAGGAUUGAGCAUCA
B22: chr7:10979719:10979720:-_ENSG00000189043_ENST00000339600|hu_hu|motif|central (ssRNA)
RNA: GGGAGUUCUACAGUCCGACGAUCUGAUCUGGCGGAGCAUGUUUGCGGCAGAGGUCUCCGACUGGAAAGGAGAGAACCGACCGGGCCACCAGGCCCUAAGCUAAAAAUUAUCUGCAAUGAGACACUACGGACUUCCAAAGUCACCAACAGAGGAUUGAGCAUCA

Each binder was assayed against T1, UNK ZnF1-3 (assay: nsRBNS (natural sequence RNA bind-n-seq); RBNS binding buffer (assumed for nsRBNS): 25 mM Tris pH 7.5, 150 mM KCl, 3 mM MgCl2, 0.01% Triton X-100, 500 ug/ml BSA, 20 U/ml SUPERase-In, 4 C; UNK is unkempt and MSI1 is Musashi-1; names of the RNAs are library labels; protein concentration not given here; high values mean tight binding).

Binder	binding signal [enrichment R]
B1	1.21
B2	1.09
B3	2.2
B4	0.652
B5	1.3
B6	1.3
B7	0.633
B8	0.679
B9	1.23
B10	0.679
B11	0.785
B12	1.64
B13	0.734
B14	0.891
B15	1.52
B16	1.2
B17	0.41
B18	0.645
B19	0.787
B20	1.22
B21	1.01
B22	1.38
